From PubChem BioAssay (NCI)
Several values for one entry are separate records, joined by “and”; a condition that tells them apart may be missing. Equal entries are not always repeated.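 Briefly, cells in 96-well plates were exposed to five compound concentrations for 48 h, and endpoints were estimated by linear interpolation. GI50: concentration for 50% inhibition of growth. TGI: concentration producing complete growth inhibition.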 Numbered stars: 1 amine (or outer) side, 2 acyl side, 3 side chain; on linkers, the order of the positions; unused ones are H or OH. Square brackets hold non-standard residues; d marks the D form. Peptide text beside a SMILES is read from it. * marks the point of attachment. X10 = NCCCCC(N[*:1])C(=O)CN1CCCC1C(=O)[*:2]; Pentadecanoyl = CCCCCCCCCCCCCCC(=O)*

tested on: NCI-H322M lung; experiment: NCI-60 cell line screen, 48 h

Row | Compound | TGI | GI50
1 | COc1ccc2nc(NC(=O)C(=O)C(C#N)c3ccc(CC#N)cc3)sc2c1 (stereo unspecified) | > 100 µM | –
2 | COc1cc2c3c4[n+](cc2c(OC)c1OC)CCC4CCC3 (stereo unspecified) | > 100 µM | –
3 | O=C(c1nc2ccccc2[nH]1)C1C(c2cccc([N+](=O)[O-])c2)C2CC3CCCCC3N2[C@@]12C(=O)Nc1cc(Cl)ccc12 (stereo partly specified) | 6.98 µM | 2.4 µM
4 | O=C(CN1CCN(c2cc3c(cc2F)c(=O)c(C(=O)O)cn3C2CC2)CC1)Nc1ccc(C(=O)/C=C/c2ccccc2)cc1 | 58.7 µM | 4.04 µM
5 | CCCCCC(=O)OCC1(CO)C/C(=C/CC(C(C)C)C(C)C)C(=O)O1 (stereo unspecified) | > 75 µM | –
6 | CCCCCCCCCCCCCCC(=O)NC(CCCCN)C(=O)CN1CCCC1C(=O)NCC(=O)NC(Cc1ccccc1)C(=O)N1CCCC1C(=O)NC(CO)C(=O)NC(Cc1ccc(O)cc1)C(=O)NC(CCCCN)C(=O)NC(CC(C)C)C(=O)NC(CCCN=C(N)N)C(=O)N1CCCC1C(=O)NCC(N)=O (stereo unspecified) (Pentadecanoyl-[X10]GFPSYKLRPG-NH2; configuration not given here) | 41.8 µM | 17.2 µM
7 | C[S+](C)C1(c2ccccc2)C(=O)c2ccccc2C1=O | > 100 µM | –
8 | C=C1CC2C[C@H](OS(=O)(=O)c3ccc(C)cc3)C(C1)N2C (stereo partly specified) | > 100 µM | –
9 | O=c1[nH]c(=O)c2c([nH]1)[nH]c1ccccc12 | > 100 µM | –
10 | O=C(Nc1ccc(I)cc1F)c1cc(F)ccc1O | > 64.5 µM | 0.428 µM
11 | Cc1cccc(Cc2cnc(NC(=O)/C=C/c3ccco3)s2)c1 | > 100 µM | 0.0651 µM
12 | CN1C(=O)[C@](C)(Cc2ccc(F)cc2)N(C(=O)OC(C)(C)C)[C@@H]1C(C)(C)C | > 100 µM | –
13 | COc1cccc(C2N3CCCCC3[C@@H]3c4[nH]c5ccccc5c4CCN23)c1OC (stereo partly specified) | 29.1 µM | –
14 | CN(C)CC(C)(C)C(=O)/C=C/c1ccccc1 | 27.6 µM | –
15 | CCCCCCCC(=O)O[C@H]1[C@H]2[C@@H](CC1(C)C)C(=O)[C@]13O[C@H]1C(=O)[C@]1(CO1)[C@]23C | 55.5 µM and 36.3 µM | 23.3 µM
16 | O=C(N/N=C\c1cc(Br)cc(Br)c1O)N/N=C/c1cc(Br)cc(Br)c1O | 19.2 µM | 3.87 µM
17 | CC(C)C(NCc1c2ccccc2nc2ccccc12)C(=O)O (stereo unspecified) | > 100 µM | –
18 | Cc1cc(N)c2cc(NC(=O)CCCCCCCCC(=O)Nc3ccc4nc(C)cc(N)c4c3)ccc2n1 | > 100 µM | –
19 | O=C(O)c1ccccc1/C=C1/Nc2ccccc2C1=O | > 100 µM | –
20 | O=C(CSCC(=O)N/N=C\c1cccc(Br)c1)N/N=C\c1cccc(Br)c1 | 27.4 µM | –
21 | Clc1ccc(C2=NNC(c3cccc(Cl)c3)C2)cc1 (stereo unspecified) | > 100 µM | –
22 | c1ccc2c(Nc3ccc4c(c3)OCO4)c3ccoc3nc2c1 | 41.2 µM | 23.4 µM
23 | O=C1CCc2c(sc3ncnc(Nc4cccc(Br)c4)c23)C1 | 20 µM | –
24 | CC1(C)CC(=O)C=C(NC(=O)c2ccccc2)C1 | > 100 µM | –

Row | Compound | TGI | GI50
25 | C(=N\Nc1nnc(-c2nnc(N/N=C/c3ccccc3)o2)o1)/c1ccccc1 | > 10 µM | –
26 | COc1ccc(Nc2ccnc3cc(Cl)ccc23)cc1CN(CCCl)CCCl | 7.29 µM | 2.27 µM
27 | CN1CCN(Cc2ccc(NC(=O)c3cncc(C#Cc4cncc5[nH]ncc45)c3)cc2C(F)(F)F)CC1 | 5.78 µM | 0.987 µM
28 | COc1ccc(C2C3=C(COC3=O)N(CCO)c3cc4c(cc32)CCC4)cc1OC (stereo unspecified) | > 50 µM | 2.15 µM
29 | Fc1ccc(-c2ncn(C3CCNCC3)c2-c2ccnc(Oc3ccc(Oc4ccccc4)cc3)n2)cc1 | 7.98 µM | 4.31 µM
30 | O=C(/C=C/c1ccc(OCCCOc2ccc(/C=C/C(=O)c3ccc(Cl)cc3)cc2)cc1)c1ccc(Cl)cc1 | > 100 µM | –
31 | Nc1nn2cc(-c3ccccc3)[n+](CC(=O)c3ccccc3)c2s1 | > 100 µM | –
32 | CC(C)c1cc(C(C)C)c(B(c2ccccc2)c2ccccc2)c(C(C)C)c1Br | > 100 µM | –
33 | O=C(O)CSc1nnc(COc2ccccc2)n1-c1ccccc1 | > 100 µM | –
34 | COC(=O)C1=C(C)NC(C)=C(C(=O)OC)C1c1ccccc1[N+](=O)[O-] | > 100 µM | 97.3 µM
35 | O=C(N(C1=CCCC1)N(c1ccccc1)c1ccccc1)C(F)(F)F | 87.4 µM | –
36 | Cc1c(-c2ccnc(N)n2)c2c(n1-c1ccccc1)C(=O)c1ccccc1C2=O | 53.2 µM | 16 µM
37 | CC(=O)c1c2c(cc3c1CCC3)CCC2 | > 100 µM | –
38 | Cn1cc(C2=C(c3cccc(Cl)c3)C(=O)NC2=O)c2ccccc21 | > 25 µM | > 25 µM
39 | CC(NC1=NCCO1)c1ccco1 (stereo unspecified) | > 100 µM | –
40 | N#Cc1nc(C(=O)c2ccccc2)oc1N | > 100 µM | –
41 | O=C1/C(=C/Cc2ccco2)N=C(c2ccccc2)N1c1nc2c(Cl)cc(Cl)cc2s1 | > 100 µM | –
42 | CC(=O)O[C@H]1CC[C@]2(C=O)[C@H]3CC[C@]4(C)[C@@H](C5=CC(=O)OC5)CC[C@]4(O)[C@@H]3CC[C@]2(O)C1 | 3.06 µM | –
43 | CCCN(CCC)c1c([N+](=O)[O-])cc(C(N)=O)cc1[N+](=O)[O-] | > 100 µM | –
44 | CN(C)CC1CCCCCCCCCCC1=O (stereo unspecified) | > 100 µM | > 10 µM and 59 µM
45 | CO[C@H]1/C=C/C=C/C=C/C[C@H](OC(=O)[C@@H](C)NC(=O)C2CCCCC2)[C@H](C)[C@@H](O)/C(C)=C\CCC2=CC(=O)C=C(NC(=O)C1)C2=O | 1.3 µM | 0.14 µM
46 | CC(=O)c1nc(C#N)c(N)o1 | > 100 µM | –
47 | O=C1/C(=C/c2ccc(Cl)cc2)COc2ccc(Br)cc21 | > 100 µM | –
48 | COC1OC2COC(c3ccccc3)OC2C(OC(=S)c2ccccc2)C1O (stereo unspecified) | > 100 µM | –

Row | Compound | TGI | GI50
49 | Cn1c(-c2cccs2)cc(-c2ccsc2)c1-c1ccsc1 | > 100 µM | –
50 | CCOC(=O)CCN1C(=O)c2c(NC(=O)C(=O)O)cccc2S1(=O)=O | > 100 µM | –
51 | Cn1ccnc1C(=O)/C=C/c1ccc(CC(=O)Nc2cc(F)c(F)c(F)c2)cc1 | 5.89 µM | 1.84 µM
52 | CC(C)(C)C1=CC(O)(c2c3ccccc3c(C3(O)C=C(C(C)(C)C)C(=O)C(C(C)(C)C)=C3)c3ccccc23)C=C(C(C)(C)C)C1=O | > 100 µM | –
53 | O=C(O)CCC(NC(=O)/C(=C/c1ccccc1)NC(=O)c1ccccc1)C(=O)O (stereo unspecified) | > 100 µM | –
54 | Cn1cc(C2=C(c3cn(C)c4cc(Cl)ccc34)C(=O)NC2=O)c2ccccc21 | > 25 µM | 0.282 µM
55 | COc1ccc(Cn2nc(OCc3ccccc3)c3cc([N+](=O)[O-])ccc32)cc1 | > 100 µM | –
56 | COc1ccc2c(c1)/C(=N/OC(C)=O)c1c-2c(Nc2ccc(/C(C)=N/OC(C)=O)cc2)nc2ccccc12 | > 100 µM | 42.4 µM
57 | c1cc[c]([Sn]([O]c2cccc3cccnc23)([c]2ccccc2)[c]2ccccc2)cc1 | 0.0398 µM | 0.0144 µM
58 | S=C1NC2=C(CCOc3c2ccc2ccccc32)C(c2ccc(Cl)cc2)N1 (stereo unspecified) | > 100 µM | 37.8 µM
59 | c1ccc(C2C3=C(CCCC3)Nc3nnnn32)cc1 (stereo unspecified) | > 100 µM | –
60 | N#CSc1cc(-c2nc3ccccc3o2)ccc1N | 81.9 µM | 23 µM
61 | CCOC(=O)Nc1ccc2nc(Sc3ccc(Cl)cc3)sc2c1 | > 100 µM | 25 µM
62 | C/C(=N\Nc1nc2ccccc2n1C)c1ccncn1 | > 100 µM | –
63 | C=CCN1C(=O)C/C(=C2/CCC(=O)N2CC=C)C1=O | > 100 µM | –
64 | COC(=O)CCCCCCCCC(=O)c1c(C)[nH]c(/C=C2\N=C(c3ccc[nH]3)C=C2OC)c1C | > 100 µM | > 41.3 µM
65 | CC(C)N(C(=O)C12C3C4C5C3C1(C(=O)N(C(C)C)C(C)C)C5C42)C(C)C (stereo unspecified) | > 100 µM | –
66 | C/C(=C\COc1ccc2ccc(=O)oc2c1)CCC(=O)C(C)(C)O | > 100 µM | –
67 | CCC[CH2][Sn]1([CH2]CCC)[O]N=Cc2ccccc2[O]1 | 4.13 µM | 1.92 µM
68 | CCc1cc2c(c3[nH]ccc13)[C@@H](C)C[C@H]2C | 34.2 µM | –
69 | CC1CC2OC(=N)C1(C#N)C2(C#N)C#N (stereo unspecified) | > 100 µM | –
70 | Cc1cc(=O)oc2c(CN(CCCl)CCCl)c(O)ccc12 | > 100 µM | –
71 | Cc1nc(C)c(C(=O)NNC(=O)c2ccccc2)cc1C(=O)NNC(=O)c1ccccc1 | > 100 µM | –
72 | CCOC(=O)c1sc2[n+](c1C)C(=O)/C(=C/c1ccccc1Cl)S2 | 64.1 µM | –

Row | Compound | TGI | GI50
73 | NS(=O)(=O)c1ccc(N=Nc2cc3ccccc3c(C(=O)O)c2O)cc1 | > 100 µM | –
74 | Cc1cncc2cccc(S(=O)(=O)N3CCCNC[C@@H]3C)c12 | > 100 µM | 72.4 µM
75 | S=C1NNC(=S)NN1 | > 1 µM | –
76 | CCOC(=O)/C=C/C(Br)=C(Br)/C=C/C(=O)OCC | > 100 µM | –
77 | CC1C/C(=C\c2ccc(O)c(O)c2)C(=O)/C(=C/c2ccc(O)c(O)c2)C1 (stereo unspecified) | 26.8 µM | –
78 | CC[C@@]1(O)C(=O)N(CCN(C)C)Cc2c1cc1n(c2=O)Cc2cc3ccccc3nc2-1 | > 100 µM | 75.4 µM
79 | CC1=NNC(N)=N/C1=C\C(Sc1ccc(Cl)cc1)c1ccc(Cl)cc1Cl (stereo unspecified) | 37.2 µM | –
80 | CCC(C)Cn1c(C)nc2c1C(=O)c1ccccc1C2=O (stereo unspecified) | > 100 µM | –
81 | CCN1CCN(c2nc(NNC(=O)c3cccc(OC)c3)nc(N3CCN(C(c4ccccc4)c4ccccc4)CC3)n2)CC1 | 6.8 µM | 2.59 µM
82 | O=C1c2ccccc2-c2c1c1ccccc1c(=O)n2CCCNCCO | 9.65 µM | 1.92 µM
83 | COc1cc2cc(C(=O)N3C[C@H](CCl)c4c3cc(O)c3ccccc43)[nH]c2c(OC)c1OC | 0.821 µM and 3.53 µM | 0.0698 µM
84 | N#CC(N)(C(=O)C(=O)NCCCNC(=O)C(=O)C(N)(C#N)c1ccc(Cl)cc1)c1ccc(Cl)cc1 (stereo unspecified) | > 100 µM | –
85 | Clc1ccc2c(NCCNc3nc(Cl)nc4ccccc34)ccnc2c1 | 2.32 µM | 1.06 µM
86 | COc1ccc(C2CCc3c(cnc4nc(N)nc(N)c34)C2)cc1 (stereo unspecified) | > 100 µM | –
87 | O=C(/C=C(/C=C/c1csc2ccccc12)OB(F)F)/C=C/c1csc2ccccc12 | > 50 µM | > 50 µM
88 | CCOC(=O)N1c2c(c3ccccc3n2C(=O)OCC)C(=O)C(OC)N1C(=O)OCC (stereo unspecified) | > 100 µM | –
89 | N#CCCCCCn1c2ccccc2c2c3c(c4c5ccccc5[nH]c4c21)C(=O)N(O)C3=O | 7.91 µM | 2.28 µM
90 | Oc1[nH]c2ccccc2c1N=NC(=S)NCc1ccccn1 | 18.3 µM | –
91 | CC(=O)[O-].CC(=O)[O-].CC(=O)[O-].CC(=O)[O-].CO.CO.CO.[Rh+2].[Rh+2].c1ccc(-c2ccccn2)nc1 | > 100 µM | > 100 µM
92 | O=C1/C(=C/c2ccccc2)CN(C(=O)Oc2ccccc2)C/C1=C\c1ccccc1 | > 100 µM | –
93 | Cc1cccc(-c2cc(=O)c3cc(C)cnc3[nH]2)c1 | > 100 µM | –
94 | CCOC(=O)CCC1(C(=O)O[C@@H]2C[C@H](C)CC[C@H]2C(C)C)CCCCC1=O (stereo partly specified) | > 100 µM | –
95 | CCCCOc1nc2ccccc2cc1C1CNC(=O)c2ccccc2N1 (stereo unspecified) | 39.3 µM | 4.89 µM
